Source: PubChem BioAssay AID1508624 (National Center for Advancing Translational Sciences (NCATS), 2021)
Hit rate of the full screen: of about 48,000 compounds, about 120 (0.25%) were called active. Roughly 4% stayed inconclusive and do not appear here. Calls come from the whole dose curve; as a rule, active = well fitted activation curve with a large enough effect; inconclusive = small, poorly fitted or top-dose-only effect, or another doubt; inactive = no such curve, though single readings can be large or run the other way. Some of the results follow.

Assay: Primary qHTS for Identification of Small Molecule Activators of Huntingtin-Antisense Promoter Activity; note: nearly all actives have a fitted effect of over 55% in size
Conditions: HEK293 HTT-AS promoter firefly luciferase reporter, 24 h; series mostly up to 57.5 µM; activity change, positive = activation: at the top concentration
Method in brief: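 HEK293 cells carrying firefly luciferase reporters were seeded at 2,500 per well in Opti-MEM and cultured for 24 h. They were then treated with compounds at up to 57.5 uM final for 24 h at 37 degrees C before Dual-Glo luminescence readout.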

Activity change, positive = activation, inactive:
CC(=O)N1CCc2c(sc3c2c(=O)n(-c2ccccc2)c(=O)n3CC(=O)c2ccc(Cl)cc2)C1 -2.53%
O=C(NCc1cccc(F)c1)C1CCN(c2nc3ccccc3nc2C(F)(F)F)CC1 14.9%
COCCNC(=O)CCn1c(=O)c2cc(OC)c(OC)cc2n(CC(=O)Nc2ccc(F)c(Cl)c2)c1=O -5.43%
Cc1cc(C)c(NC(=O)Cn2c(=O)n(-c3cccc(C(F)(F)F)c3)c(=O)c3c(C)c(C)sc32)c(C)c1 -2.04%
O=C(O)c1ccc(Nc2nc3ccccc3c3nncn23)cc1 16.8%
COc1ccccc1NC(=O)C(Cc1ccccc1)NS(=O)(=O)c1ccc2c(c1)CCN2C(C)=O (stereo not drawn) -11.9%
CC(=O)N1CCOc2cc(S(=O)(=O)NCc3ccccc3Cl)c(C)cc21 -12.2%
CCc1ccccc1Nc1nn2c(=O)c3ccc(C(=O)NCc4ccc(C)cc4)cc3nc2s1 -32.1%
NC(=O)c1ccc(N(C(N)=O)c2c(F)cccc2F)nc1-c1ccc(F)cc1F -14.1%
O=C(NC1CCCCCC1)C1CCN(C(=O)N2CCOc3ccc(Cl)cc32)CC1 -11.5%
CCCCc1nn2c(=O)cc(COC(=O)c3cccc(NC(=O)COc4ccccc4)c3)nc2s1 25%
Cc1ccc(C2=NN(CC(=O)NCCCN(CC(C)C)CC(C)C)C(=O)CC2)cc1 -5.78%
Cc1cc2[nH]c(=O)c(=O)[nH]c2cc1S(=O)(=O)NCc1ccc(F)cc1 -12%
CCOCCCNC(=O)c1ccc2c(c1)NC(=O)C(CS(=O)(=O)Cc1ccc(F)cc1Cl)N2 (stereo not drawn) -20.9%
Cc1cc(C)n(-c2nc3ccccc3nc2Nc2ccc(C(C)C)cc2)n1 1.22%
O=C(Nc1ccc(Cl)cc1Cl)c1cc(S(=O)(=O)N2CCC3(CC2)OCCO3)ccc1F -31.3%
CCN(CCCNC(=O)CSc1cc(=O)n(C)c2ccccc12)c1ccccc1 -2.72%
CCOc1cccc(NC(=O)C2CC(=O)N(C)C(=Nc3cccc(OC)c3)S2)c1 (stereo not drawn) -28.2%
CCC(=O)OCC(=O)[C@@]1(OC(=O)CC)[C@@H](C)C[C@@H]2[C@H]3CCC4=CC(=O)C=C[C@]4(C)[C@@]3(F)[C@@H](O)C[C@@]21C -25.2%
Cc1cc(C)c(NC(=O)C(C)n2c(=O)cc(C)c3c(C)nn(-c4ccccc4)c32)c(C)c1 (stereo not drawn) 1.72%
O=C1CS(=O)(=O)C2(C(=O)Nc3ccccc32)N1c1cccc(Cl)c1 (stereo not drawn) -14%
COc1cccc2c1cc1c(=O)n(CC(=O)N3CCN(c4ccccc4F)CC3)nc(C)n12 -11.2%
CCOc1ccc(NC(=O)CCCc2nc(-c3cccc(OC)c3)no2)cc1 -3.15%
Cc1ccc(CNC(=O)c2sc3nc(C)cc(C)c3c2-n2cccc2)cc1 -3.43%
CC(C)(C)C(=O)Nc1cc(-c2cccc(Br)c2)nn1-c1ccccc1 -2.52%
CCOC(=O)c1ccc(NC(=O)CSc2nc3ncc(Br)c(C)c3[nH]2)cc1 6.93%
CC(=O)Oc1ccccc1C(=O)Nc1ncc([N+](=O)[O-])s1
COCCCNC(=O)c1ccc(Cn2c(=O)c3ccccc3n(CC(N)=O)c2=O)cc1 -17.6%
CCC(=O)N1c2ccccc2CC1C(=O)NCCCN1CCN(c2cc(C)ccc2C)CC1 (stereo not drawn) -22.8%
COc1ccc(-c2cc3nc(N)cc(=O)n3[nH]2)cc1 16.8%
CCN(C(=O)c1ccc2c(c1)N(Cc1cccc(Cl)c1)C(=O)c1ccccc1S2=O)c1ccccc1 (stereo not drawn) -61.4%
O=C(NCCCc1nc2ccccc2n1Cc1ccc(F)cc1)C1CCCCC1 -20.7%
Cc1ccc(C)c(CSc2nc3c([nH]c4ccccc43)c(=O)n2C)c1 -5.89%
CC(C)c1ccc2oc(-c3ccc(Cl)c(NC(=O)c4cccs4)c3)nc2c1 -27.5%
Cc1cccc(C)c1OCc1cc(=O)n2c(-c3ccccc3)csc2n1 -25.7%
Cn1nc(-c2ccc(OCC(=O)Nc3cccc(C(F)(F)F)c3)cc2)c2ccccc2c1=O -48.9%
COc1ccc(NC(=O)c2cc(S(=O)(=O)N3CCOCC3)cn2C)cc1Cl -21.2%
Cc1ccc(C(=O)Nc2ccc(F)cc2)cc1S(=O)(=O)N1CCCCCC1 -29.7%
CCN(CC)CCOC(=O)C1(C2CCCCC2)CCCCC1 -11.4%
Cc1ccccc1NC(=O)C1CCC(CNS(=O)(=O)c2ccc3c(c2)C(C)(C)C(=O)N3C)CC1 (stereo not drawn) -26.8%
CCCCOCCOCCOCc1cc2c(cc1CCC)OCO2
Oc1ccccc1 1.33%
CCOc1ccc(CCNC(=O)c2cn(C)c3ccc(S(=O)(=O)N4CCOCC4)cc3c2=O)cc1OCC 5.95%
Cc1ccc(-n2ncc3c(N(C)Cc4ccccc4)ncnc32)cc1 -29.8%
Cc1cc(NS(=O)(=O)c2ccc(NC(=O)c3ccccc3F)cc2)nc(C)n1 -20.1%
Cc1cccc(Cn2c(C)c(C)c3cc(C(=O)NCc4ccco4)ccc32)c1 -30.5%
COc1ccc(S(=O)(=O)NCCc2csc3nc(-c4ccc(Cl)cc4)nn23)cc1C -28.9%
CS(=O)(=O)N1CCc2cc(S(=O)(=O)NCc3ccccc3Cl)ccc21 -29.2%
COc1ccc2[nH]c(=O)c(CN(C(=O)c3cccc(Cl)c3)c3ccccc3OC)cc2c1 -23.9%
CC(=O)Nc1ccccc1OCc1cc(=O)n2c3c(sc2n1)CCCC3 -8.17%
Cn1c2ccccc2c2cnn(CC(=O)NCc3ccc(Cl)cc3)c(=O)c21 -1.71%
COc1ccc(-c2nc(Cn3c(SCc4cccc(Cl)c4)nc4ccncc43)c(C)o2)cc1 -36.6%
Cc1ccc(Sc2c(C)nn(C(=O)COc3ccccc3)c2C)cc1 0.362%
Cn1cnc(S(=O)(=O)N2CCC(C(=O)NCc3ccccc3)CC2)c1 -9.15%
CC1=C(c2ccc(F)cc2)S(=O)(=O)N=C1N1CCC(C(=O)NCCc2ccco2)CC1 -21.5%
CCOC(=O)c1c(S(=O)(=O)N2CCCC(C(=O)N(C)Cc3ccccc3)C2)c(C)n(C)c1C (stereo not drawn) 9.27%
COc1cc(NC(=O)Cn2ccn(Cc3ccccc3OC)c(=O)c2=O)cc(OC)c1 -8.63%
O=C(CN1CCN(Cc2ccc(F)cc2Cl)S1(=O)=O)Nc1ccc(F)cc1 -27%
Cc1ccc(C(c2sc3nc(-c4ccco4)nn3c2O)N2CCOCC2)cc1 (stereo not drawn) -7.32%
COc1ccccc1NC(=O)CSc1nc2ccccc2c(=O)n1CCC(=O)NC1CCCCC1 5.66%
Cc1cccc(-n2c(-c3ccco3)nc3c(cnn3-c3ccccc3C)c2=O)c1 -36.4%
Cc1ccc(Cn2nc(C)c(NC(=O)c3cc(-c4ccc(F)cc4)on3)c2C)cc1 -37.7%
Cc1ccc(NC(=O)Cn2c(C)cc(C)c(C#N)c2=O)cc1 -1.41%
CCOc1ccc(NC(=O)Cn2c(=O)oc3cc(S(=O)(=O)NC4CCCC4)ccc32)cc1 -27%
CCC(=O)N1CCc2cc(Br)cc(S(=O)(=O)CCC(=O)N3CCN(c4ccccc4OC)CC3)c21 6.74%
COc1ccc(-c2ccnc3[nH]n(-c4ccccc4)c(=O)c23)cc1 -4.28%
COc1ccccc1N1CCN(S(=O)(=O)c2ccc3[nH]c4c(c3c2)CCCC4)CC1 -35.8%
CCOc1cc(-c2nnc(SCC(=O)NCc3ccccc3)nc2-c2ccc(OC)c(OCC)c2)ccc1OC -30.5%
COc1ccc(/C=C\c2onc(C)c2S(=O)(=O)N2CCC(C(=O)Nc3ccc(Cl)cc3)CC2)cc1 -18.1%
CCc1ccc(NC(=O)C2CCCN(S(=O)(=O)c3ccc4c(c3)CCCN4C(C)=O)C2)cc1 (stereo not drawn) -29.1%
Cc1ccc(-n2ncc(C(=O)N3CCCCC3)c2C2CCN(C(=O)OC(C)(C)C)CC2)cc1C -2.39%
COc1ccc(C(=O)N2CC(=O)Nc3ccc(C)cc3C2c2ccccc2)c(OC)c1 (stereo not drawn) -9.1%
Cc1cccc(OCC(=O)NCC2(N3CCN(C)CC3)CCCCC2)c1C -15%
COc1ccc(OCc2ccc(-c3nc(C#N)c(N4CCC(C)CC4)o3)o2)cc1 -29.3%
CCCNC(=O)C(=O)NCC(c1ccc2c(c1)OCO2)N1CCOCC1 (stereo not drawn) -11.1%
CCc1ccc(S(=O)(=O)c2nnn(-c3ccc(F)cc3)c2N)cc1 -36.7%
CCc1ccc(NC(=O)CSC2=Nc3ccccc3C3=NC(CC(=O)NC4CCCCC4)C(=O)N23)cc1 (stereo not drawn) 7.53%
Cc1ccc2c(=O)cc(C(=O)Nc3ccc(S(=O)(=O)Nc4nc(C)cc(C)n4)cc3)oc2c1 20.3% [at 11.5 µM, percent change from vehicle, -100% = no light]
COc1ccc(NC(=O)C2CCCN(S(=O)(=O)c3ccc4c(c3)CCCC(=O)N4)C2)cc1OC (stereo not drawn) -34.1%
CCCOC(=O)c1ccccc1 -0.759%
O=C(C1CCN(c2ncnc3c2nc2n3CCCCC2)CC1)N1CCN(c2ccc(F)cc2)CC1 -17.8%
CCOc1cc(C2C(C(=O)Nc3ccc(OC)cc3)=C(C)Nc3nc(SC)nn32)ccc1O (stereo not drawn) -9.03%
CCOc1ccc(/C=C/c2nc(C#N)c(N3CCCCC3)o2)cc1 -17.7%
Cc1ccc(OCC(=O)NCC2(N3CCOCC3)CCCCC2)cc1C -28%
CCCCN(CCCC)CCNC(=O)c1cn(CC)c2ccc(S(=O)(=O)N3CCc4ccccc4C3)cc2c1=O -1.66%
CCCN(CCC)CCNC(=O)CN1C(=O)COc2ccc(S(=O)(=O)N3CCC(C)CC3)cc21 -10.6%
CCOC(=O)Cn1nc(-c2ccccc2)c2cnc3ccc(OCC)cc3c21 -23.5%
Cc1oc(-c2cccc(Cl)c2)nc1CN1CCC(C(=O)NCCCN2CCN(c3ccccc3F)CC2)CC1 -24.6%
CCOC(=O)CSc1nc2c([nH]c3ccccc32)c(=O)n1-c1ccc(OC)cc1 -8.62%
O=C(CN(CCc1ccccc1)S(=O)(=O)c1ccc(Br)cc1)NCc1ccc(Cl)cc1 -18.8%
COc1ccc(N(Cc2cccs2)C(=O)c2ccc(Br)o2)cc1 -32.5%
CCC1CN(C(=O)C2CCN(S(=O)(=O)c3c(C)noc3/C=C/c3ccccc3F)CC2)c2cc(Cl)ccc2O1 (stereo not drawn) 18.4%
COc1ccc(OC)c(Nc2ncnc3c2cnn3-c2cccc(Cl)c2)c1 -11.6%
